According to the supplement of paper PMC10369915:
Some of the results follow. Cut-off read from the data, not from the text of the source: active = 3.2 or more and inactive = the rest. The signal is at background level for most entries.

B1: DLG4_HUMAN_240 (peptide)
chain: KNTYDVVYLKVAKPS
B2: DNER_HUMAN_711 (peptide)
chain: KKSRPAMYDVSPIAY
B3: DNJA1_HUMAN_381 (peptide)
chain: RHYNGEAYEDDEHHP
B4: DNJC5_HUMAN_17 (peptide)
chain: STSGESLYHVLGLDK
B5: DOK1_HUMAN_341 (peptide)
chain: KPLYWDLYEHAQQQL
B6: DOK1_HUMAN_398_YA (peptide)
chain: ARVKEEGYELPANPA
B7: DPYL2_HUMAN_32 (peptide)
chain: VNDDQSFYADIYMED
B8: DYN1_HUMAN_354 (peptide)
chain: SGDQIDTYELSGGAR
B9: DYR1A_HUMAN_111 (peptide)
chain: YKHINEVYYAKKKRR
B10: DYR1A_HUMAN_111_YA (peptide)
chain: AKHINEVYAAKKKRR
B11: DYR1A_HUMAN_145_YA (peptide)
chain: DGADDDNYDAIVKNG
B12: DYR1A_HUMAN_177 (peptide)
chain: FGQVVKAYDRVEQEW
B13: DYR1A_HUMAN_219 (peptide)
chain: KHDTEMKYYIVHLKR
B14: DYR1A_HUMAN_449 (peptide)
chain: SGHTVADYLKFKDLI
B15: DYR1B_HUMAN_111 (peptide)
chain: GERWLERYEIDSLIG
B16: DYR1B_HUMAN_92 (peptide)
chain: KKVLNHGYDDDNHDY
B17: DYRK3_HUMAN_369 (peptide)
chain: EYQKLYTYIQSRFYR
B18: DYRK4_HUMAN_264_YA (peptide)
chain: EHQKVATYIQSRFAR

Target: SHP2 C-SH2 domain E139D
Assay: enrichment score (SH2-bound / input frequency) (ratio); bacterial display of known human phosphotyrosine sites (pTyr-Var adds point mutants) read by sequencing; higher = stronger binding; tyrosines were phosphorylated by kinases first
Conditions: peptide library: Human pTyr
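Note: displayed peptides selected on beads carrying the immobilized SH2 domain, with library peptides lacking any tyrosine serving as negative controls.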

| Binder | enrichment score |
| --- | --- |
| B1 | inactive: 0.815 |
| B2 | inactive: 1.66 |
| B3 | inactive: 1.88 |
| B4 | inactive: 1.47 |
| B5 | inactive: 1.52 |
| B6 | inactive: 0.783 |
| B7 | inactive: 1.28 |
| B8 | inactive: 0.652 |
| B9 | inactive: 0.854 |
| B10 | inactive: 1.83 |
| B11 | inactive: 1.01 |
| B12 | inactive: 0.644 |
| B13 | inactive: 3.08 |
| B14 | inactive: 1.24 |
| B15 | inactive: 0.798 |
| B16 | inactive: 0.694 |
| B17 | active: 3.27 |
| B18 | inactive: 1.69 |

Target: SHP2 C-SH2 domain wild-type
Assay: as above
Conditions: peptide library: Human pTyr

| Binder | enrichment score |
| --- | --- |
| B1 | inactive: 0.804 |
| B2 | inactive: 1.75 |
| B3 | inactive: 0.42 |
| B4 | inactive: 1.47 |
| B5 | inactive: 1.73 |
| B6 | inactive: 0.575 |
| B7 | inactive: 1.49 |
| B8 | inactive: 0.474 |
| B9 | inactive: 0.912 |
| B10 | inactive: 1.27 |
| B11 | inactive: 0.909 |
| B12 | inactive: 0.711 |
| B13 | active: 3.33 |
| B14 | inactive: 1.02 |
| B15 | inactive: 0.78 |
| B16 | inactive: 0.88 |
| B17 | active: 4.34 |
| B18 | inactive: 1.55 |

Target: SHP2 N-SH2 domain L43F
Assay: as above
Conditions: peptide library: Human pTyr

| Binder | enrichment score |
| --- | --- |
| B1 | inactive: 0.685 |
| B2 | inactive: 1.42 |
| B3 | inactive: 1.45 |
| B4 | inactive: 1.6 |
| B5 | inactive: 1.65 |
| B6 | inactive: 0.898 |
| B7 | inactive: 1.43 |
| B8 | inactive: 0.606 |
| B9 | inactive: 0.831 |
| B10 | inactive: 1.29 |
| B11 | inactive: 1.02 |
| B12 | inactive: 0.656 |
| B13 | inactive: 2.71 |
| B14 | inactive: 1.12 |
| B15 | inactive: 0.817 |
| B16 | inactive: 1.01 |
| B17 | inactive: 2.95 |
| B18 | inactive: 1.91 |

Target: SHP2 N-SH2 domain T42A
Assay: as above
Conditions: peptide library: Human pTyr

| Binder | enrichment score |
| --- | --- |
| B1 | inactive: 0.771 |
| B2 | inactive: 1.64 |
| B3 | inactive: 0.109 |
| B4 | inactive: 1.48 |
| B5 | inactive: 1.76 |
| B6 | inactive: 0.62 |
| B7 | inactive: 1.21 |
| B8 | inactive: 0.472 |
| B9 | inactive: 0.721 |
| B10 | inactive: 1.34 |
| B11 | inactive: 0.949 |
| B12 | inactive: 0.67 |
| B13 | inactive: 2.58 |
| B14 | inactive: 1.09 |
| B15 | inactive: 0.796 |
| B16 | inactive: 0.989 |
| B17 | inactive: 2.3 |
| B18 | inactive: 1.77 |

Target: SHP2 N-SH2 domain T52S
Assay: as above
Conditions: peptide library: Human pTyr

| Binder | enrichment score |
| --- | --- |
| B1 | inactive: 0.891 |
| B2 | inactive: 1.58 |
| B4 | inactive: 1.57 |
| B5 | inactive: 1.62 |
| B6 | inactive: 0.77 |
| B7 | inactive: 1.42 |
| B8 | inactive: 0.605 |
| B9 | inactive: 0.705 |
| B10 | inactive: 1.15 |
| B11 | inactive: 1.17 |
| B12 | inactive: 0.772 |
| B13 | active: 3.37 |
| B14 | inactive: 1.17 |
| B15 | inactive: 0.748 |
| B16 | inactive: 0.685 |
| B17 | active: 4.09 |
| B18 | inactive: 1.71 |

Target: SHP2 N-SH2 domain wild-type
Assay: as above
Conditions: peptide library: Human pTyr

| Binder | enrichment score |
| --- | --- |
| B1 | inactive: 0.644 |
| B2 | inactive: 2.55 |
| B3 | inactive: 0.535 |
| B4 | inactive: 1.9 |
| B5 | inactive: 1.86 |
| B6 | inactive: 0.745 |
| B7 | inactive: 1.43 |
| B8 | inactive: 0.655 |
| B9 | inactive: 1.08 |
| B10 | inactive: 1.26 |
| B11 | inactive: 1.15 |
| B12 | inactive: 0.977 |
| B13 | active: 4.03 |
| B14 | inactive: 1.46 |
| B15 | inactive: 0.668 |
| B16 | inactive: 0.756 |
| B17 | active: 3.71 |
| B18 | inactive: 2.04 |
